According to article PMC7558535, “In Vitro Metabolism of DWP16001, a Novel Sodium-Glucose Cotransporter 2 Inhibitor, in Human and Animal Hepatocytes” (Pharmaceutics, 2020):

Substrate: OC[C@H]1O[C@@H](c2cc(Cc3ccc(C4CC4)cc3)c(Cl)c3c2CCO3)[C@H](O)[C@@H](O)[C@@H]1O
Experiment: Enzyme kinetics of metabolite formation in cDNA-expressed CYP2C19 supersomes
Format: in vitro ADME, human
Conditions: other: CYP2C19 supersomes, DWP16001 1–200 μM, NADPH, 37.0 °C
Experimental: To calculate the enzyme kinetic parameters for the M1 and M2 formation from DWP16001, DWP16001 (final concentrations, 1–200 μM) was incubated with NADPH-generating system, pooled human liver microsomes (0.25 mg/mL), or human cDNA-expressed CYP3A4 or CYP2C19 supersomes (10 pmol) at 37 °C for 30 min in triplicate. Reactions were stopped by addition of 400 μL of ice-cold ketoconazole (200 ng/mL) in acetonitrile. Following vortex-mixing and centrifugation (15,000× g, 8 min, 4 °C), 75 μL aliquots of the supernatant were diluted with 75 µL of 30% acetonitrile; 5 μL aliquots were injected into an LC−MS/MS system.
Apparent kinetic parameters (Km, Vmax and n) for the formation of M1, M2, and M3 from DWP16001 by human liver microsomes, CYP3A4, or CYP2C19 were calculated as follows: the unweighted formation rates of M1, M2, and M3 over a range of DWP16001 concentrations were fitted to the Hill equation model [V = Vmax × S^n/(Km^n + S^n)] or the single enzyme model [V = Vmax × S/(Km + S)] using Enzyme Kinetics software (version 1.1 SPSS Inc., Chicago, IL, USA). In the above equations, V means the reaction velocity of the formation of M1, M2, and M3 at given concentration [S] of DWP16001, Vmax means the maximum reaction velocity, n means the Hill constant, and Km means the DWP16001 concentration at which the reaction velocity is 50% of Vmax.

B1: CYP2C19 (Homo sapiens) (protein)
chain: MDPFVVLVLCLSCLLLLSIWRQSSGRGKLPPGPTPLPVIGNILQIDIKDVSKSLTNLSKIYGPVFTLYFGLERMVVLHGYEVVKEALIDLGEEFSGRGHFPLAERANRGFGIVFSNGKRWKEIRRFSLMTLRNFGMGKRSIEDRVQEEARCLVEELRKTKASPCDPTFILGCAPCNVICSIIFQKRFDYKDQQFLNLMEKLNENIRIVSTPWIQICNNFPTIIDYFPGTHNKLLKNLAFMESDILEKVKEHQESMDINNPRDFIDCFLIKMEKEKQNQQSEFTIENLVITAADLLGAGTETTSTTLRYALLLLLKHPEVTAKVQEEIERVIGRNRSPCMQDRGHMPYTDAVVHEVQRYIDLIPTSLPHAVTCDVKFRNYLIPKGTTILTSLTSVLHDNKEFPNPEMFDPRHFLDEGGNFKKSNYFMPFSAGKRICVGEGLARMELFLFLTFILQNFNLKSLIDPKDLDTTPVVNGFASVPPFYQLCFIPV
notes: purchased Corning Life Sciences
**Q.** Which results are given for B1?
**A.** Km (M1 formation): 156.4 µM; Km (M2 formation): 35.4 µM

Some values that stand alone complete this part of the results.
